Several values for one entry are separate records, joined by “and”; a condition that tells them apart may be missing. Identical values can stand only once. Whole data set: some 13,000 compounds, median “IFI” near 4, cut for the highest 2% near 17. The list shows a part of the results.

Data on 86 molecules can be found in ChEMBL document CHEMBL1157539, “Thousands of chemical starting points for antimalarial lead identification” (Nature, 2010).

The assay in a line: GSK_TCMDC: Inhibition Frequency Index (IFI). The number of non-kinase HTS assays where a compound showed > 50 % inhibition, expressed as a percentage of the number of such assays in which the compound was tested (-0 is zero). It counts as functional.
Take `Nc1nc(N)c2c(n1)CCC(c1ccccc1)C2` (stereo unspecified): the IFI is -0%.
In turn, `CCCCCCN1CCC(CNCc2cccc(Cl)c2)CC1` displayed an IFI of 2.08%.
`COc1cc(N)c(Cl)cc1C(=O)NCC1CCN(c2nc(C)cc(C)n2)CC1` showed an IFI of 2.33%.
Regarding `Clc1cccc(Nc2ccc3c(N4CCCCC4)ncnc3n2)c1`, the IFI amounted to 8.33%.
`Cc1[nH]c(C)c(-c2ccc(Oc3ccc(Cl)cc3)cc2)c(=O)c1Cl` had an IFI of 0%.
In turn, `CCCCN(C)CC#Cc1ccc(-c2ccc3[nH]c(C)c(Br)c(=O)c3c2)cn1` returned an IFI of 0.92%.
Molecule `CC1CN(c2cnn(Cc3ccc(NC(=O)Nc4cccc(C(F)(F)F)c4)cc3)c(=O)c2Cl)CC(C)N1` (stereo unspecified) showed an IFI of 0.69%.
With `Cc1cc(N2C(N)=NC(N)=NC2(C)C)ccc1Cl`, the IFI turned out to be 0.75%.
`O=C(NCc1cccc(F)c1)Nc1ccc(-c2cccc(-c3nc4ccccc4[nH]3)c2)cc1` came in with an IFI of 5.05%.
Under `O=C1CCCN1CCCNCc1cccc(-c2ccc(-c3nc4cc(C(F)(F)F)ccc4[nH]3)s2)c1` stands 5.77%; under `Oc1ccc(CCNCCCCNCCc2ccc(Cl)cc2)cc1O`, 6.12%; under `O=S(=O)(Nc1cccc(CCN2CCC(N3CCCCC3)CC2)c1)c1cccc2ccccc12`, 8.06%.
`Cn1cncc1-c1ccc2ncnc(Nc3ccc4c(cnn4Cc4ccccc4)c3)c2c1` showed an IFI of 4.08%.
`COc1cc2nc(N3CCC(CNC(=O)c4ccc(NC(=O)c5ccc(Cl)cc5)cc4)CC3)nc(N)c2cc1OC` gave an IFI of 2.8%.
Turning to `CCN(CC)CCN(Cc1ccc(-c2ccc(C(F)(F)F)cc2)cc1)C(=O)Cn1c(CCc2cccc(F)c2F)cc(=O)cc1-c1ccccc1`, the IFI turned out to be 11.3%.
Take `COc1ccc(C(=O)NCC(C)(C)c2nc(-c3ccc(Cl)c(O)c3)c(-c3ccncc3)[nH]2)cc1OCCN(C(C)C)C(C)C`: the IFI turned out to be 1.47%.
Turning to `CN1CCN(c2ccc(Nc3c(C(N)=O)cnc4cc(-c5ccoc5)ccc34)cc2)CC1`, the IFI was 4.73%.
Under `CCCc1cc(Cc2cnc(N)nc2N)cc(OC)c1OC` stands 0.73%; under `COc1ccccc1CNC(=O)c1cc(C2CC2)nc2c1cnn2C(C)C`, 1.59%; under `COc1ccc(-c2cccc(CNCc3ccc(F)cc3)c2)cc1S(=O)(=O)NCCN1CCCC1`, 4.85%.
On to `COc1cc(-c2ccc3c(-c4ccc(C(=O)N5CCN(C)CC5)cc4)n[nH]c3n2)cc(OC)c1OC`, for which the IFI was 4%.
For `CC(C)c1ccc(NC(=O)NC2CCN(CCCCCN(C)C(=O)/C=C/c3ccc(Cl)c(Cl)c3)C2)cc1` (stereo unspecified), the IFI turned out to be 6.72%.
For the molecule `Cc1cc(NCCC(=O)NCCc2ccccc2)nc(NCCc2ccc(F)cc2)n1`, the IFI was 4.55%.
The molecule `COc1ccc(CNC(=O)C2Cc3ccccc3CN2Cc2ccc3ccccc3c2)cc1` (stereo unspecified) returned an IFI of 2.13%.
For `Cc1cc(C(F)(F)F)nn1-c1ccc(NC(=O)c2ccco2)cc1`, the IFI is -0%.
In the case of `O=C(CNC1CCCCC1)Nc1cccc(C(=O)Nc2cccc(C(F)(F)F)c2)c1`, the IFI was determined as 3.42%.
Under `Cc1cc(NC(=O)Nc2ccc(C(C)(C)C)cc2)c2ccccc2n1` stands 3.7%.
For the molecule `O=S(=O)(Nc1cccc(CCN2CCCCC2CCN2CCCC2)c1)c1ccc(Oc2ccccc2)cc1` (stereo unspecified), the IFI amounted to 17.5%.
For `O=C(/C=C/c1ccc(Cl)c(Cl)c1)NCCCCCN1CCCC(C(=O)Nc2ccc(F)c(Cl)c2)C1` (stereo unspecified), the IFI was found to be 13.2%.
Turning to `COc1ccccc1C1CCN(CCCCNC(=O)c2ccc(NC(=O)c3ccc(Cl)cc3)cc2)CC1`, the IFI was 2.68%.
`N#Cc1ccc2c(c1)CN(CCC1CCC(NC(=O)c3cc4cc(OC(F)(F)F)ccc4[nH]3)CC1)CC2` (stereo unspecified) registered an IFI of 2.24%.
Regarding `C=CCc1cccc(C)c1OCCCON1C(=N)N=C(N)NC1(C)C`, the IFI stood at 4.29%.
With `O=C(Nc1cccc(-c2nn3ccccc3c2-c2ccnc(Nc3ccccc3)n2)c1)c1cc(F)ccc1F`, the IFI worked out at 4.9%.
Molecule `Nc1nc(Nc2cccc(O)c2)nc2ccccc12` gave an IFI of 5.04%.
As for `CSc1c(CNCCCNc2cc(=O)c3ccccc3[nH]2)[nH]c2ccccc12`, the IFI was 4.9%.
`CC1(C)NC(N)=NC(=N)N1OCCCOc1cc(Cl)ccc1Cl` yielded an IFI of 8.27%.
In turn, `Cc1ccc(NC(=O)c2cc([N+](=O)[O-])ccc2NCc2cccnc2)cc1Cl` had an IFI of 2.4%.
Under `Clc1ccc(OC2CCC(Cn3ccnc3)(c3ccc(Cl)cc3Cl)CC2)c(Cl)c1` (stereo unspecified) stands 6.62%; under `Nc1nc(N)c2c3c(ccc2n1)NCCC3`, 2.48%; under `COc1ccc(CNCC(C)(C)c2nc(-c3ccc(Cl)c(O)c3)c(-c3ccncc3)[nH]2)cc1`, 6.38%.
As to `CN1CCc2ccc(NC(=O)Nc3ccc(-c4ccccc4)cc3)cc2C1`, the IFI came out at 7.02%.
The molecule `CS(=O)(=O)c1ccc(CCNCc2ccc(-c3ccc(CN(C(=O)C4CC(=O)c5ccccc54)C4Cc5ccccc5C4)cc3)nc2)cc1` (stereo unspecified) registered an IFI of 6.99%.
With `C=C[C@]1(C)C[C@@H](OC(=O)c2n[nH]c3ccccc3c2=O)[C@]2(C)[C@H](C)CC[C@]3(CCC(=O)[C@H]32)[C@@H](C)[C@@H]1O`, the IFI was 2.92%.
For the molecule `CC(C)(CNCCOc1ccc(Cl)cc1)c1nc(-c2ccnc(N)n2)c(-c2ccc(Cl)c(O)c2)[nH]1`, the IFI came to 6.29%.
For `COc1cccc(OC)c1CN1CCC(N(C)CCCCCCCCN2CCC(OC(=O)Nc3ccccc3-c3ccccc3)CC2)CC1`, the IFI turned out to be 13.1%.
`O=C(NCc1ccc(Cl)c(Cl)c1)c1ccc(-c2nc3cc(F)c(F)cc3[nH]2)cc1` had an IFI of 0.73%.
Molecule `CCC(Cc1cnc2nc(N)nc(N)c2n1)c1ccc(C(=O)O)cc1` (stereo unspecified) gave an IFI of 1.43%.
`COc1cccc(CN2CCCC(OC(c3ccc(F)cc3)c3ccc(F)cc3)C2)c1O` (stereo unspecified) showed an IFI of 2.99%.
The molecule `O=S(=O)(NCCN1CCCC1)c1ccc(-c2ccc(CNCc3ccccc3)cc2)cc1` gave an IFI of 8.65%.
Consider `Cc1ccc(-c2ccc3c(c2)C=C(C(=O)NCC2CCN(CC4CCN(C(=O)/C=C/c5ccc(Cl)c(Cl)c5)CC4)CC2)CCC3)cc1`, for which the IFI came to 7.86%.
`CC(C)(C)NS(=O)(=O)c1cc(C(=O)N2CCC(CCN3CCC(O)(c4cccc(C(F)(F)F)c4)CC3)(c3cccc(F)c3)CC2)c(Cl)cc1F`: the IFI worked out at 5.67%.
Molecule `CCCNCc1ccc(-c2ccc(CN(CCOC)C(=O)c3nn(-c4ccccc4)nc3C)cc2)nc1` gave an IFI of 4.51%.
The molecule `COc1ccc(C(=O)Nc2cc(Br)c3c(c2)CNCC3)cc1C(F)(F)F` registered an IFI of 4.96%.
Regarding `CCn1c(-c2nonc2N)nc2c(-c3cccc(NC(=O)Nc4ccc5c(c4)CCC5)c3)ncc(OCCCN)c21`, the IFI stood at 14.8%.
Under `O=C(/C=C/c1ccc(Cl)c(Cl)c1)NCCCCCN1CCC(c2c[nH]c3ccccc23)C(O)C1` (stereo unspecified) stands 3.5% and 2.96%; under `O=C(NCCSCc1c(F)cccc1Cl)c1cnc2c(c1)nc(-c1c[nH]c(-c3ccccc3)n1)n2CCc1c[nH]cn1`, 2.99%.
Molecule `N#Cc1ccc(CN2CCCN(Cc3cccc(NC(=O)c4ccc(Cl)c(Cl)c4)c3)CC2)cc1` registered an IFI of 4.05%.
`Cn1c(NC(=O)c2ccc(CNC(=O)c3ccc(O)c(-c4ccc(Cl)c(Cl)c4)c3)cc2)nc2ccccc21` registered an IFI of 0.74%.
`CCN1CCCC(CNC(=O)/C(=C/C=C/c2cc3cc(Cl)c(Cl)cc3[nH]2)OC)C1` (stereo unspecified) gave an IFI of 10.3%.
The value for `Cc1ccc(C)c2sc(N3CCN(C(=O)c4ccc([N+](=O)[O-])o4)CC3)nc12` was 2.78%; that for `CN(C)CCN(Cc1ccccc1-c1ccc(CNCCc2ccccc2)cc1)C(=O)NC1CCCCC1` was 11.9%; that for `COc1ccc2ncc(F)c([C@@H](O)CN3CCC(NCc4cc5c(cn4)OCS5)CC3)c2c1` was 3.7%.
Turning to `O=C(/C=C/c1ccc(Cl)c(Cl)c1)NCCCCCN1CCC(CCNC(=O)C2(c3ccc(Cl)cc3)CC2)CC1`, the IFI is 14.3%.
The value for `COCCN1CCN(Cc2ccc(-c3cccc(-c4nc5ccccc5[nH]4)c3)cc2)CC1` was 0%; that for `CCN(CC)CCCC(C)Nc1ccnc2ccc(-c3ccccc3)cc12` (stereo unspecified) was 0.72%.
On to `CN(C)c1ccc(CN2CCC(NC(=O)c3ccc(-c4ccc(N(C)C)cc4)s3)CC2)cc1`, for which the IFI turned out to be 15.5%.
With `CN(C)CCOc1cc(NC(=O)Nc2ccc(Cl)cc2C(F)(F)F)ccc1I`, the IFI stood at 1.43%.
The value for `COc1cccc2c(NCCNc3ccnc4c(OC)cccc34)ccnc12` was 0.75%.
`O=C(Nc1cccc(-c2nn3ccccc3c2-c2ccnc(Nc3cccc(-c4cnco4)c3)n2)c1)C1CCCCC1` showed an IFI of 7.25%.
As to `CC(C)NCc1ccc(OCc2cccc(COc3ccc(CNC(C)C)cc3I)c2)c(I)c1`, the IFI came out at 17.6%.
`O=C(NCCc1ccccc1)N(Cc1ccccc1-c1cccc(CNCCc2ccccc2)c1)C1CCN(Cc2ccccc2)CC1` yielded an IFI of 12%.
The molecule `Cn1nc(-c2ccccc2F)c2cc(C(=O)NC3CCN(Cc4ccccc4)CC3)sc21` registered an IFI of 2.1%.
The molecule `O=C1C(c2ccccc2)=C(Nc2cccc([N+](=O)[O-])c2)c2ccccc21` showed an IFI of 4.65%.
`Cc1cc(N2CCCCC2)nc2ccc(NC(=O)c3cccc([N+](=O)[O-])c3)cc12` yielded an IFI of 3.74%.
Take `CCN(CC)CCOc1ccc(C(O)(C#CC(O)(c2ccc(OCCN(CC)CC)cc2)c2ccc([N+](=O)[O-])cc2)c2ccc([N+](=O)[O-])cc2)cc1` (stereo unspecified): the IFI is 5.84%.
The molecule `CC(C)(C)c1ccc(/C=C/C(=O)NCCCCCN2CCC(c3c[nH]c4ccccc34)CC2)cc1` gave an IFI of 4.55%.
Molecule `CCCCc1ccc2ncc(C(=O)OCC)c(O)c2c1` yielded an IFI of 0.78%.
The value for `Cc1noc(C)c1-c1ccc(C(=C2CCCCCC2)c2ccc(O)cc2)cc1` was 8.66%; that for `CN1CCC(N(Cc2ccc(-c3ccc(C(F)(F)F)cc3)cc2)C(=O)Cn2cc(Cc3cnn(C)c3)c(=O)nc2SCc2cccc(F)c2F)CC1` was 8.15%.
Turning to `c1ccc2c(CNCCCN3CCN(CCCNCc4c5ccccc5cc5ccccc45)CC3)c3ccccc3cc2c1`, the IFI is 15.3%.
As for `CCc1cn2c3c(cc(C(=O)N[C@@H](Cc4cccc(F)c4)[C@H](O)CNC4CCOCC4)cc13)N(C)S(=O)(=O)CC2`, the IFI worked out at 3.13%.
The value for `COc1cc2ccccc2cc1OCCCN1CCN(CC(c2ccc(F)cc2)N2CCN(C(C)C)CC2)CC1` (stereo unspecified) was 10.3%; that for `COc1ccc2nccc([C@@H](O)CN3CCC(NCCc4c[nH]c5ccccc45)CC3)c2c1` was 1.52%; that for `CC(C)(C)c1ccc(C(=O)Nc2ccc(NC(=O)c3ccc([N+](=O)[O-])o3)cc2)cc1` was 0.75%.
Molecule `CS(=O)(=O)c1cccc(-c2cnc(N)c3cc(-c4ccc5c(c4)OCO5)ccc23)c1` returned an IFI of 4.48%.
Under `COc1ccc(-c2ccc(NC(=O)c3cccc(C#N)c3)cc2)cc1CN1CCNCC1` stands 2.97%.
